Reference: PubChem BioAssay AID686978 (National Center for Advancing Translational Sciences (NCATS), 2013)
Hit rate of the full screen: of about 420,000 compounds, about 64,000 (15%) were called active. This list was built around the results that the source calls inconclusive (neither active nor inactive); the mix of calls is not that of the screen. Calls come from the whole dose curve; as a rule, active = well fitted inhibition curve with a large enough effect; inconclusive = small, poorly fitted or top-dose-only effect; inactive = flat fitted curve, though single readings scatter. Potencies of inconclusive entries are left out as doubtful fits.

Assay: qHTS for Inhibitors of human tyrosyl-DNA phosphodiesterase 1 (TDP1): qHTS in cells in absence of CPT; note: nearly all actives have a fitted effect of over 55% in size
Conditions: DT40 Tdp1-/- hTDP1 cells, no CPT, ATP luminescence, 48 h; activity change, negative = growth inhibition: at 46.2 µM (top of the series) unless noted
Method in brief: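 Camptothecin absent (DMSO only). Human TDP1-complemented DT40 knockout cells, 400 cells/well, 37 °C for minimum 48 hr; ATP measured via CellTiter-Glo, 30 min dark incubation, luminescence.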
% is set by controls: 0 for no effect and ±100 for the full control effect; potency is the fitted concentration of half-maximal effect; tags give direction and shape of the fitted curve.

Structure (SMILES) | Potency | activity change, negative = growth inhibition
COc1ccc(C2=C(Nc3ccc(C)cc3C)c3ccccc3C2=O)cc1 | inconclusive [inhibitor, partial curve] | 
CCc1cccc(NC(=O)CN(C)S(=O)(=O)c2ccc3c(c2)CCCN3C(C)=O)c1 | inconclusive [inhibitor, single point] | 
CN(C)S(=O)(=O)c1ccc(NC(=O)Cn2ccsc2=N)cc1 |  | inactive: -6.84%
COc1ccc(NC(=S)NC(NC(=O)c2ccc(Cl)cc2Cl)C(Cl)(Cl)Cl)c([N+](=O)[O-])c1 (configuration not stated) | inconclusive [inhibitor, single point] | 
COc1ccccc1-c1noc(-c2ccc(NCC3CCCO3)c([N+](=O)[O-])c2)n1 (configuration not stated) | active: 8.2 µM | 
Cc1cc(C)c(S(=O)(=O)NCC(c2ccc(N(C)C)cc2)N2CCOCC2)c(C)c1 (configuration not stated) | inconclusive [inhibitor, single point] | 
Cc1ccc2oc(=O)n(CCCOc3ccccc3Cl)c2c1 | inconclusive [inhibitor, single point] | 
COc1cc(OC)c(N(C)S(=O)(=O)c2cccc(C(=O)OCC(=O)c3c[nH]c4ccccc34)c2)cc1Cl | active: 23.1 µM | 
CCN(CC)CCN(C(=O)c1cc2ccccc2cc1OC)c1nc2ccc(F)cc2s1 | inconclusive [inhibitor, partial curve] | 
CC(C)(C)c1ccc(/C=C(\C#N)C(=O)NC2CC2)cc1 | inconclusive [inhibitor, single point] | 
CCOC(=O)c1cnc2c(C)c(Cl)ccc2c1Nc1ccc(N2CCOCC2)cc1 | inconclusive [inhibitor, single point] | 
CC(=O)Nc1cccc(OCC(=O)NS(=O)(=O)c2ccc(C)cc2)c1 |  | inactive: -11.1%
O[C@H]1C[C@H](c2ccc(Cl)cc2)N(CC2CCCCC2)C[C@@H]1n1cc(C2CC2)nn1 | active: 6.51 µM | 
COC(=O)c1c(C)oc(C)c1S(=O)(=O)N(Cc1ccccc1)C(C)C | active: 16.4 µM | 
CCNC(=S)NNC(=O)c1cccn(Cc2ccc(Cl)cc2)c1=O |  | inconclusive: -43.4% [inhibitor]
CCCn1c(=N)c(C(=O)NCC2CCCO2)cc2c(=O)n3cccc(C)c3nc21 (configuration not stated) | inconclusive [inhibitor, partial curve, poor fit] | 
Cc1ccc(OCc2cc(C(=O)N(C)Cc3cnn(C)c3)no2)cc1C | inconclusive [inhibitor, single point] | 
COC(=O)c1cnc2c(C(F)(F)F)cccc2c1OC | inconclusive [inhibitor, single point] | 
Cc1ccccc1Nc1nc(N)nc(COC(=O)c2cccc(S(=O)(=O)NCc3ccccc3)c2)n1 | inconclusive [inhibitor, single point] | 
C/C(=N\NC(=O)COc1cc(C)cc(C)c1)c1ccc(N2CCOCC2)cc1 | inconclusive [inhibitor, single point] | 
COc1cccc(C(=O)NCCCc2ccccc2)c1OC |  | inactive: -28.9%
C#CCNC(=O)C1CCN(c2ccc(S(=O)(=O)N3CCOCC3)cc2Cl)CC1 | inconclusive [inhibitor, partial curve] | 
Cc1nc(C/C(=N\Nc2ccccc2)c2ccc(O)cc2O)cs1 | inconclusive [inhibitor, partial curve, poor fit] | 

Structure (SMILES) | Potency | activity change, negative = growth inhibition
CCOC(=O)c1ccc(NC(=O)c2ccccc2N(C)S(=O)(=O)c2ccccc2)cc1 | inconclusive [inhibitor, single point] | 
CC(C)CCN1C(=O)c2ccc(C(=O)Nc3cccc(S(N)(=O)=O)c3)cc2C1=O | inconclusive [inhibitor, single point] | 
Cc1cccc(-c2nc3c4ccccc4nc(NCCc4ccccc4)n3n2)c1 | inconclusive [inhibitor, partial curve, poor fit] | 
Cc1cc(NCc2ccccc2)nc(-c2ccccc2O)n1 | inconclusive [inhibitor, single point] | 
Cn1c(CO)cnc1SCc1ccc(Cl)cc1 |  | inactive: 5.04%
O=C(COCc1cc(-c2ccc(F)cc2)on1)Nc1cc(F)ccc1F |  | inactive: -29.9%
O=C(NCC(c1ccc(F)cc1)N1CCOCC1)c1cccnc1Sc1ccccc1Cl (configuration not stated) | inconclusive [inhibitor, single point] | 
O=c1c(NCc2cccs2)nccn1-c1ccc(F)cc1 | inconclusive [inhibitor, single point] | 
O=c1[nH]c(CN2CCN(S(=O)(=O)/C=C/c3ccccc3)CC2)nc2ccccc12 | inconclusive [inhibitor, single point] | 
O=C(OCC(=O)N1CCCc2ccccc21)c1cccc(S(=O)(=O)N2CCc3ccccc32)c1 | inconclusive [inhibitor, single point] | 
COc1cccc(CNc2ccc3[nH]c(=O)[nH]c3c2)c1OCc1ccccc1 | inconclusive [inhibitor, single point] | 
Cc1ccc(S(=O)(=O)N2CCCCCC2)cc1[N+](=O)[O-] | active: 10.3 µM | 
NC(=S)Nc1cccc2cc3ccccc3cc12 | inconclusive [inhibitor, full curve] | 
COc1cc(=O)n2c(c1C(=O)NCc1nccs1)CCN(Cc1ccccc1F)CC2 |  | inactive: -14.5%
Cc1nn(Cc2ccc(C(=O)N3N=C(C(F)F)CC3(O)C(F)F)cc2)c(C)c1[N+](=O)[O-] (configuration not stated) | inconclusive [inhibitor, single point] | 
CCN(CC)CCCNC(=O)Cc1csc2nc(-c3ccc(Cl)cc3)cn12 | inconclusive [inhibitor, single point] | 
C[C@@H](C(=O)NCCc1c[nH]c2ccccc12)[C@H]1C[C@]1(C)[C@H](NC(=O)OCc1ccccc1)c1ccccc1 | active: 16.4 µM | 
CC(NC(=O)CSc1nnc(-c2cccnc2)n1N)c1ccccc1 (configuration not stated) |  | inactive: -0.77%
CCc1cc(CNC(=O)CC2C(=O)NCCN2CC2CCCCC2)on1 (configuration not stated) |  | inactive: 13.8%
O=C(CCSCc1ccccc1Cl)NCc1ccc(F)cc1Cl | inconclusive [inhibitor, single point] | 
CCOc1ccccc1-c1cc(C(=O)N/N=C(\C)c2cccnc2)c2ccccc2n1 | inconclusive [inhibitor, partial curve] | 
COc1cc2c(cc1OC)C(=O)N1[C@H]3c4cc(C)ccc4OC[C@@H]3[C@H](c3ccccc3)[C@]1(C)C(=O)N2 | active: 20.6 µM | 
CCCCc1ccc(C2C3=C(CC(C)(C)CC3=O)NC3=C2C(=O)c2ccccc23)cc1 (configuration not stated) | inconclusive [inhibitor, single point] | 

Structure (SMILES) | Potency | activity change, negative = growth inhibition
CC(=O)[C@H]1CC[C@H]2C3CC=C4C[C@@H](O)CC[C@]4(C)C3CC[C@]12C (some centres not stated) |  | inactive: 13.9%
Cc1ccc2nc(-c3ccc(C)o3)c(Nc3ccc(F)cc3)n2c1 | inconclusive [inhibitor, single point] | 
CC(C)c1ccc(NC(=O)C(c2ccccc2)N2CCN(C=O)CC2)cc1 (configuration not stated) |  | inconclusive: -30.6% [inhibitor]
Cc1cccc(CCNC(=O)c2cc3c(=O)n(C)c4ccccc4c3n2C)c1 | inconclusive [inhibitor, single point] | 
COc1ccccc1/C=C1\SC(=S)N(CCC(=O)Nc2cccc(O)c2)C1=O | inconclusive [inhibitor, single point] | 
O=C(NC1CCCCC1)c1ccc(COc2ccccc2)o1 | inconclusive [inhibitor, single point] | 
CCc1cc2c(cc3c(=O)n(CCCC(=O)NCc4cccc(Cl)c4)ncn32)s1 | inconclusive [inhibitor, single point] | 
CC(C)c1ccc(NS(=O)(=O)c2ccc3c(c2)NC(=O)CO3)cc1 | inconclusive [inhibitor, single point] | 
COc1ccc(NC(=S)N2CCc3ccccc3C2)cc1 |  | inconclusive: -35.8% [inhibitor]
CCOCCCn1c(=S)[nH]c2cc(C(=O)N3CCN(c4ccccc4)CC3)ccc2c1=O |  | inactive: -11.8%
Cc1ccc(CN2C(=O)c3ccccc3CC2(C)C(=O)NC2CCCCC2)cc1 (configuration not stated) | inconclusive [inhibitor, partial curve] | 
COc1cc2c(cc1OC)-c1cc3cc(OC)c(OC)cc3c(=O)n1CC2 | inconclusive [inhibitor, single point] | 
O=C(NCC(c1ccco1)N1CCN(c2ccc(F)cc2)CC1)C(=O)NC1CCCC1 (configuration not stated) | inconclusive [inhibitor, single point] | 
CC(=O)NC1=NN(C(C)=O)C2(S1)C(=O)N(C(C)=O)c1ccc(C)cc12 (configuration not stated) | inconclusive [inhibitor, single point] | 
COc1cc2c3c(c1)c(N=NC(N)=S)c(O)n3C(C)(C)C=C2C | active: 5.17 µM | 
Oc1ccc(C2C(c3ccccc3)=NN=C(c3ccc(Cl)cc3)N2O)c(O)c1 (configuration not stated) |  | inactive: -23.3%
O=C(C[n+]1cccc2ccccc21)c1ccc(Cl)cc1 |  | inactive: -13.3%
O=C1CCN(S(=O)(=O)c2ccccc2)CCN1CCOCc1ccc(Cl)cc1 |  | inactive: -20.5%
Cc1cc(C)n(-c2ccc(C(=O)OC(C)C)cc2)n1 |  | inactive: -1.91%
Cc1cccc2c1-c1sc(C(=O)N(C)c3cccc(Cl)c3)cc1CO2 | inconclusive [inhibitor, single point] | 
CCN=c1scc(-c2ccco2)n1/N=C/c1ccc(OC)c(O)c1 | inconclusive [inhibitor, single point] | 
